Data from the supplement of paper PMC10126150.
Sequences with one replicate were seen in a single cluster, so their values are uncertain.
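Note: ATP exposure 15 min at 22 °C before imaging.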

Each sequence was assayed on ATP (assay: switch fluorescence ratio, 500 uM ATP over buffer (Cy3 cluster intensity, sum of 5 cycles each) (fold (ratio)); higher = stronger signal-on switching upon ATP binding; sequences stand for … in TCGTCGGCAGCGTCAGATGTGTATAAGAGACAGTTTTTTTTTTTTTTTTTTTTTTTTT…TC). Conditions: aptamer strand: ATP DNA aptamer (quencher-CACCTGGGGGAGTATTGCGGAGGAAGG + anchor), 100 nM annealed; ATP concentration: 500 uM; one replicate.
Summary of the method: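 Clusters carrying Cy3-labelled switching strands on a modified Illumina MiSeq flow-cell were annealed to 100 nM quencher-labelled ATP aptamer and imaged in selection buffer. They were imaged again after 15 min with 500 uM ATP at 22 °C, over five buffer/ATP cycles with NaOH stripping and re-annealing in between. For each cluster, the fluorescence ratio is the summed Cy3 intensity of the target cycles divided by that of the buffer cycles, averaged per switch-domain sequence. Clusters outside 100-1000 RFU were left out.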
Sequence GGGCATACAC has a switch fluorescence ratio of 1.14.
GTGCGGGGTT was tested, and the switch fluorescence ratio was 0.996.
Sequence TATGCTATAT has a switch fluorescence ratio of 0.995.
GTTATAGCAA showed a switch fluorescence ratio of 1.21.
For GGGAACTAAG, the switch fluorescence ratio was 0.992.
For TCAGACGGG, the switch fluorescence ratio was 0.976.
Sequence CATGGGGAGC has a switch fluorescence ratio of 0.987.
For GATACTTTG, the switch fluorescence ratio was 1.02.
Work on TCGGCACTCT yielded a switch fluorescence ratio of 0.987.
ATAACCGAGG was tested, and the switch fluorescence ratio was 0.992.
GCTGCTTATT was tested, and the switch fluorescence ratio was 1.03.
CGTAGGCACC was tested, and the switch fluorescence ratio was 0.984.
Work on TAACCCGCTT yielded a switch fluorescence ratio of 0.999.
For GTGCTTGACC, the switch fluorescence ratio was 1.03.
In the case of AGCCTTGAGT, the switch fluorescence ratio is reported as 0.958.
TGGCCCTAAA showed a switch fluorescence ratio of 1.03.
In the case of AGTGCTAGGT, the switch fluorescence ratio is reported as 0.999.
In the case of CAACTAAACG, the switch fluorescence ratio is reported as 1.15.
With CTCTTTTGGA the switch fluorescence ratio was 1.02.
Sequence GACGTTGGTC has a switch fluorescence ratio of 0.984.
With CAAAAGGTAC the switch fluorescence ratio was 1.15.
With GGTGGTTCGA the switch fluorescence ratio was 0.966.
Sequence TTAGAAGTTG has a switch fluorescence ratio of 1.04.
Work on GCTTGGGGTA yielded a switch fluorescence ratio of 0.951.
With GGCAGGATCG the switch fluorescence ratio was 0.934.
In the case of AACTGGTATC, the switch fluorescence ratio is reported as 1.01.
CGATCAAACG gave a switch fluorescence ratio of 1.
In the case of TTAAGCCTGC, the switch fluorescence ratio is reported as 0.959.
TATAAGTCCC gave a switch fluorescence ratio of 1.01.
With GATTGGGAA the switch fluorescence ratio was 1.
TAAAGTGTTT was tested, and the switch fluorescence ratio was 1.
CTTTAGATTT gave a switch fluorescence ratio of 0.971.
GCTGGGATAA showed a switch fluorescence ratio of 0.965.
AACCGCTAAG showed a switch fluorescence ratio of 1.26.
With ACGTAGGGCA the switch fluorescence ratio was 1.04.
With ATTAGGCCGT the switch fluorescence ratio was 1.01.
ATTATTGTGC gave a switch fluorescence ratio of 1.01.
With TCGGGCGTAG the switch fluorescence ratio was 1.03.
In the case of GGCGAGTCGA, the switch fluorescence ratio is reported as 1.
With TTCAGGGGAC the switch fluorescence ratio was 0.986.
With CCATGGCCGC the switch fluorescence ratio was 1.18.
GAGGTTAAG showed a switch fluorescence ratio of 0.978.
In the case of GCTAGGGAGG, the switch fluorescence ratio is reported as 0.967.
TCCCAGTTTT gave a switch fluorescence ratio of 1.06.
Sequence CAGTCCGATT has a switch fluorescence ratio of 0.954.
GGTTTGTA showed a switch fluorescence ratio of 0.996.
GAGGAGGGAA gave a switch fluorescence ratio of 1.03.
ATTTGCCAAT showed a switch fluorescence ratio of 0.979.
TTTTGGACTG showed a switch fluorescence ratio of 0.987.
Work on GGGCGTGAAT yielded a switch fluorescence ratio of 0.975.
Sequence GAGAGGGACA has a switch fluorescence ratio of 0.988.
GTCGGAGCGG was tested, and the switch fluorescence ratio was 1.03.
With GCGGAAGTGG the switch fluorescence ratio was 0.991.
Sequence GCACCAGATT has a switch fluorescence ratio of 0.993.
CCATTATCTT gave a switch fluorescence ratio of 1.03.
With GGTACACGTG the switch fluorescence ratio was 0.957.
Work on AAAGGACTTT yielded a switch fluorescence ratio of 0.969.
Work on CAGTGCATAC yielded a switch fluorescence ratio of 1.7.
For TTAGGCAGA, the switch fluorescence ratio was 1.02.
CTCACCTTTC showed a switch fluorescence ratio of 1.95.
Sequence CATCTTAAGT has a switch fluorescence ratio of 0.983.
TAAACTCAGA showed a switch fluorescence ratio of 1.03.
Work on TGCTGGTGTG yielded a switch fluorescence ratio of 1.03.
Work on GATCGATGTT yielded a switch fluorescence ratio of 0.985.
GTCATTCGGT showed a switch fluorescence ratio of 0.988.
ATCTATGTGA was tested, and the switch fluorescence ratio was 0.973.
AAATAGGTAC was tested, and the switch fluorescence ratio was 0.974.
Work on CCCCGTCAGG yielded a switch fluorescence ratio of 1.05.
Work on CAGTCTTCGT yielded a switch fluorescence ratio of 1.
For GCTAATAATG, the switch fluorescence ratio was 0.97.
With AACACGGGAA the switch fluorescence ratio was 1.02.
GGTGTCAGTG gave a switch fluorescence ratio of 1.01.
TTTCTAACC was tested, and the switch fluorescence ratio was 0.999.
ATAACAAAGG showed a switch fluorescence ratio of 1.03.
GCATAGTGTA showed a switch fluorescence ratio of 1.04.
Sequence AATTGGGTCA has a switch fluorescence ratio of 0.948.
With TCTCTTAT the switch fluorescence ratio was 1.
Sequence TAGTAATCCG has a switch fluorescence ratio of 0.976.
AACGGAAGAA was tested, and the switch fluorescence ratio was 1.1.
Work on CGAGTAGGCC yielded a switch fluorescence ratio of 1.07.
AGCGGAAAGG showed a switch fluorescence ratio of 1.03.
Work on ATGACGCTTC yielded a switch fluorescence ratio of 0.977.
TGACACGCGC showed a switch fluorescence ratio of 1.04.
With GCTCTCGGAC the switch fluorescence ratio was 1.7.
With CATCCTCACT the switch fluorescence ratio was 1.22.
Sequence TTCGACGTGA has a switch fluorescence ratio of 1.57.
In the case of TGCCTTTAGA, the switch fluorescence ratio is reported as 0.971.
Work on GACGGCTGAG yielded a switch fluorescence ratio of 0.982.
Work on ATCCTCATTT yielded a switch fluorescence ratio of 1.02.
For TTTATGCAAC, the switch fluorescence ratio was 1.03.
For TGTCCAAAAA, the switch fluorescence ratio was 1.02.
TTGCTGGGA gave a switch fluorescence ratio of 0.979.
For GGGTATTAGG, the switch fluorescence ratio was 0.943.
ACATCGCTTC gave a switch fluorescence ratio of 1.18.
TGCGGTTGGC was tested, and the switch fluorescence ratio was 1.03.
AATAGGCGGA showed a switch fluorescence ratio of 0.981.
AAGAGGTTGT showed a switch fluorescence ratio of 0.954.
TAGTGCGTCC gave a switch fluorescence ratio of 1.06.
Sequence CCAGCAGACC has a switch fluorescence ratio of 3.43.
Sequence GGGATCTAAT has a switch fluorescence ratio of 0.991.
CACCCGGGGG gave a switch fluorescence ratio of 1.1.
With CAAGGGCCTG the switch fluorescence ratio was 0.995.
For ACCTGTCAAC, the switch fluorescence ratio was 1.08.
Sequence GTGGATGTCT has a switch fluorescence ratio of 1.09.
GAGCTATCGT showed a switch fluorescence ratio of 1.03.
TAGGGTGACA showed a switch fluorescence ratio of 1.01.
TCATACGGCA gave a switch fluorescence ratio of 1.23.
In the case of CAATTCAGGC, the switch fluorescence ratio is reported as 0.967.
With GCGGAGGGAG the switch fluorescence ratio was 1.11.
With GGGCTGGGAA the switch fluorescence ratio was 0.952.
TTAATGTTAG was tested, and the switch fluorescence ratio was 1.02.
GCGATTCAGC was tested, and the switch fluorescence ratio was 0.987.
GCCTAGCATT was tested, and the switch fluorescence ratio was 0.998.
With TACAGGTCTT the switch fluorescence ratio was 0.983.
For GCACACTGCA, the switch fluorescence ratio was 0.997.
For GGATTCGGAC, the switch fluorescence ratio was 0.983.
CTAGTAGGTC was tested, and the switch fluorescence ratio was 0.998.
TATGTAACTT gave a switch fluorescence ratio of 1.01.
ACTCGGGGAA gave a switch fluorescence ratio of 1.05.
GACAGTAGTG was tested, and the switch fluorescence ratio was 0.991.
With TGTGCTAGCA the switch fluorescence ratio was 1.01.
In the case of TTAACGATGG, the switch fluorescence ratio is reported as 0.957.
For GGACCAAGAC, the switch fluorescence ratio was 2.32.
For CCGGCCCTTT, the switch fluorescence ratio was 1.07.
Sequence TTGACATTAC has a switch fluorescence ratio of 1.34.
GAAACTCAGG was tested, and the switch fluorescence ratio was 1.04.
Sequence TTTAGCCCCT has a switch fluorescence ratio of 1.1.
For CATAGATGGT, the switch fluorescence ratio was 0.987.
Work on ATGATATAGG yielded a switch fluorescence ratio of 1.01.
CCTCTCAGAG showed a switch fluorescence ratio of 1.23.
With AATCCCGACT the switch fluorescence ratio was 0.995.
For ACATCAGGC, the switch fluorescence ratio was 1.09.
With CTTTTGTCCG the switch fluorescence ratio was 1.06.
In the case of TTGGTAACTC, the switch fluorescence ratio is reported as 0.986.
CAATCTGCG gave a switch fluorescence ratio of 1.04.
For CTCAGGTTAC, the switch fluorescence ratio was 1.67.
AACGGACTCT gave a switch fluorescence ratio of 1.19.
GATGCGTCAA gave a switch fluorescence ratio of 1.03.
For AATGGGCCAG, the switch fluorescence ratio was 0.962.
For TACAACATGT, the switch fluorescence ratio was 1.
With TAGTTTGCCT the switch fluorescence ratio was 1.06.
With GTTCAGGACC the switch fluorescence ratio was 0.985.
TTTGGGACCG gave a switch fluorescence ratio of 1.03.
For TGGTATATGG, the switch fluorescence ratio was 0.954.
For TACGGTTACG, the switch fluorescence ratio was 1.4.
GATAAAAAGG gave a switch fluorescence ratio of 0.976.
In the case of GAGCAGCTAC, the switch fluorescence ratio is reported as 1.42.
For CTGTGCTAAG, the switch fluorescence ratio was 0.949.
For GTGGTGGATT, the switch fluorescence ratio was 0.968.
With TTACAGTATG the switch fluorescence ratio was 1.1.
In the case of AATTTAGTTC, the switch fluorescence ratio is reported as 0.984.
CCTTGGGCGT gave a switch fluorescence ratio of 1.04.
With CAGGGCCCCT the switch fluorescence ratio was 1.03.
